# Source: PubChem BioAssay AID488969 (Vanderbilt High Throughput Screening Facility, 2010)
# In all, about 110,000 compounds were measured (“z-score”: median about -0.1, highest 2% from about 2 on). The list shows a part of the results. Activity calls are given as the source filed them.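 The calls were made as follows: active = z-score in the third read window above 3 or below -3; inactive = the rest.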
# Target: Metabotropic glutamate receptor 8 (Rattus norvegicus) (UniProt P70579)
# Test: mGluR8 Gi/Go-coupled signaling modulation – cell-based, rat, thallium flux, HTS, primary screen (AID 488969)
# Details: HEK293 rat mGluR8, GIRK (G protein-gated inwardly rectifying potassium channel) thallium flux, FluoZin2; at 10 µM; stronger effect = higher value; submaximal glutamate (EC20) added with thallium
# Sequence of UniProt P70579 (P70579 whole entry, looked up): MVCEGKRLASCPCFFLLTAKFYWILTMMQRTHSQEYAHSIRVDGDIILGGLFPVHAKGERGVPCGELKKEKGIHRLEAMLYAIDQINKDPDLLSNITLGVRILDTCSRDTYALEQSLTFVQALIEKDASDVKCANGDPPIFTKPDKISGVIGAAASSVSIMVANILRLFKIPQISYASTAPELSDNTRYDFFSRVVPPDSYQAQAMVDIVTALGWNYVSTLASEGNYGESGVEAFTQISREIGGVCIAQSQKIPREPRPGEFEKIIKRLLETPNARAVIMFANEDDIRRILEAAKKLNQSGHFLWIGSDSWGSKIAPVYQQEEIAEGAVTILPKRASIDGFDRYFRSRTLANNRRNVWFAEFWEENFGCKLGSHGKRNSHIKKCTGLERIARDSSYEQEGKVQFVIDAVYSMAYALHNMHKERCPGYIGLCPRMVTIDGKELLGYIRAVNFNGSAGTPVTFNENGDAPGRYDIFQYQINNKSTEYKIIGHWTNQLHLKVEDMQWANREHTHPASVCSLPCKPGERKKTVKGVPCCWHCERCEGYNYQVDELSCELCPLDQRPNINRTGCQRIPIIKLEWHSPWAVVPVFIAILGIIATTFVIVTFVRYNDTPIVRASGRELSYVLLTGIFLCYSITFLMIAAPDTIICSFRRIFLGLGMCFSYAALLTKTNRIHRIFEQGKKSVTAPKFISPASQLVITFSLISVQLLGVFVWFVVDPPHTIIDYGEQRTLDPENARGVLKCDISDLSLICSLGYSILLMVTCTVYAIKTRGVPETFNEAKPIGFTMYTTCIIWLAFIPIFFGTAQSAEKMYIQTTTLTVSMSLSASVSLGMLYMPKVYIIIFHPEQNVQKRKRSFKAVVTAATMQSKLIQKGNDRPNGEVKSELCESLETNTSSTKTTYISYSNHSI
row,SMILES,z-score
1,CCc1c(C)sc(NC(=O)c2cccs2)c1C#N,-0.577
2,Cc1nn(CC(=O)N2CCOCC2)c(=O)c2ccccc12,0.0183
3,CC1Cc2ccccc2N1C(=O)C1CCCN(S(=O)(=O)c2cccc3cccnc23)C1 (stereo not given),-0.322
4,Brc1ccc2cccnc2c1,0.127
5,Cc1cc(NC(=O)C(C)Oc2ccc(Cl)cc2Cl)n(-c2ccccc2)n1 (stereo not given),-0.237
6,CCOC(=O)c1[nH]c(C)c(C(=O)NC2CCN(C(=O)OCC)CC2)c1C,0.525
7,O=C(Cn1cnc([N+](=O)[O-])n1)N/N=C/c1cccc2ccccc12,-0.301
8,CCN=C1SC(C(=O)Nc2cccc(C(=O)O)c2)CC(=O)N1CC (stereo not given),-0.0757
9,C/C(=C1\SC(N2CCOCC2)=NC1=O)c1ccc(C)cc1,-0.38
10,O=C(Cn1nnc(-c2cccs2)n1)N1CCc2ccccc2C1,-0.858
11,COc1ccc(C(=O)Nc2cc(C)c3c(=O)oc4ccccc4c3n2)cc1,0.0183
12,CC(C)OC(=O)CN1C(=O)C(C)(C)Oc2ccc(C(=O)NC3CC3)cc21,-0.304
13,COC(=O)C1CSc2[nH]c(=O)sc2C1c1ccc(O)c(OC)c1 (stereo not given),0.639
14,COc1ccc(C(=O)COC(=O)C(CCCCN2C(=O)C3C4C=CC(C4)C3C2=O)N2C(=O)C3C4C=CC(C4)C3C2=O)cc1 (stereo not given),-0.489
15,O=C(CSc1n[nH]c(=O)[nH]c1=O)N/N=C/c1ccccc1O,-0.0324
16,CCOC(=O)c1ccc(-n2ccnc2)c(NC(=O)c2ccc(Cl)cc2)c1,-0.385
17,COc1ccc(NC(=S)N2CCN(CCN=CC3=C(O)CC(c4ccccc4)CC3=O)CC2)cc1 (stereo not given),-0.517
18,COc1ccccc1N(CC(=O)NC1CCCC1)C(=O)c1csnn1,-0.397
19,COc1cccc(/C=N\Nc2nncc(-c3ccccc3)n2)c1,-0.183
20,CCOc1ccc(N(CC(=O)NC2CCCCC2)S(=O)(=O)c2c(C)noc2C)cc1,0.0255
21,COc1cc(C(=O)Nc2ccc3c(c2)OCCO3)ccc1OC(C)C,2.41
22,Cc1ccc(N=Nc2c(C)[nH]n(C(N)=S)c2=O)cc1C,-0.217

row,SMILES,z-score
1,Cc1csc(NC(=O)c2cc3c(s2)CCCCC3)n1,-0.158
2,CSc1nsc(SCC(=O)Nc2ccc(C(C)=O)cc2)n1,-0.119
3,COc1ccc(C(NC(=O)/C=C\c2ccco2)c2ccc(OC)c(OC)c2)cc1 (stereo not given),-0.081
4,Cc1ccc(S(=O)(=O)N(C)CC(=O)O/N=C(\N)c2cccc([N+](=O)[O-])c2)cc1,-0.73
5,COc1cccc(CNc2ccc(F)c(Cl)c2)c1O,-0.0487
6,CCCCN(CCCC)S(=O)(=O)c1ccc2[nH]c(=O)[nH]c2c1,-0.144
7,CN(C)CCNC(=O)c1ccc(COCC(F)(F)F)cc1,0.425
8,CCOc1ccccc1N1CCN(C(=O)c2cc3c(s2)CCC3)CC1,-2.68
9,CCN(C(=O)c1cc2cc3ccc(C)cc3nc2o1)c1ccc(OC)cc1,-2.68
10,CCOc1ccc2nc(NC(=O)CS(=O)(=O)c3ccccc3)sc2c1,0.564
11,Cc1ccccc1OCC(=O)N/N=C/c1cccc(Oc2ccc([N+](=O)[O-])cc2[N+](=O)[O-])c1,-0.266
12,CC(C)(C)NCc1cc(Br)ccc1OCc1cccs1,0.119
13,O=C(OCc1cnc(Cl)s1)c1ccc(Cl)cc1,-0.0946
14,COC(=O)C(CC(=O)c1ccc(Br)cc1)n1ccnc1 (stereo not given),-0.851
15,CCSC1=C(C#N)C(c2cccc(Br)c2)CC(=O)N1 (stereo not given),-0.439
16,O=C(NC1CCCCC1)C(c1ccccn1)N(C(=O)Cc1cccs1)c1ccc(Cl)cc1 (stereo not given),-0.584
17,Cc1noc(C)c1COc1cccc(C(=O)N2CCN(C/C=C/c3ccccc3)CC2)c1,-0.606
18,CC(=O)c1c(CC(=O)O)[nH]n(-c2nc3ccccc3s2)c1=O,-0.159
19,COc1ccc(C2=NN(C(=O)/C=C/c3ccccc3)C(c3ccccc3)C2)c(OC(C)=O)c1 (stereo not given),-0.159
20,CCCC(=O)NC(Nc1cc(C(F)(F)F)ccc1Cl)C(Cl)(Cl)Cl (stereo not given),-0.349
21,O=C(NNc1nc(-c2ccc(Cl)cc2)cs1)c1ccco1,-0.514
22,CCN1CCN(C(=O)CN(C)S(=O)(=O)c2ccc(Cl)cc2)CC1,0.218

row,SMILES,z-score
1,Cc1cc[n+](-c2nc3ccccc3nc2C(=C=[N-])C#N)cc1,-0.186
2,CCCN1C(=O)/C(=C/c2nc3ccccc3c(=O)[nH]2)c2ccccc21,-1.54
3,Cc1csc(=O)n1CCC(=O)O,0.291
4,C#CCOC(=O)C(NC(=O)c1ccccc1)=C1CCCCC1,-0.603
5,CCCC(=O)Nc1c(-c2ccc(OC)cc2)c(=O)c2ccccc2n1C,-0.253
6,O=C(N/N=C/c1ccc(O)cc1)c1cccc(C(F)(F)F)c1,-0.162
7,O=C(CC(Nc1ccc(F)cc1)C(=O)OCC(=O)c1cccs1)c1ccccc1 (stereo not given),-0.226
8,COC(=O)C(C)N(C(=O)c1cccc(Cl)c1)c1c(C)cccc1C (stereo not given),active: -4.14
9,O=C(NCc1ccc2c(c1)OCO2)c1ccc2c(c1)OCCO2,0.0302
10,CCn1cc(CN(C)S(=O)(=O)c2ccc3ccccc3c2)c(C)n1,-0.504
11,COc1ccc(S(=O)(=O)N2CCOCC2)cc1NC(=O)Cc1ccc(Cl)c(Cl)c1,0.29
12,O=C(NCCc1ccccn1)c1cc(-c2ccc(Cl)cc2)nc2ccccc12,-0.309
13,COc1cc(OC)c(-c2nnc3n(CCc4ccccc4)c(=O)c4ccccc4n23)cc1OC,0.147
14,Cc1ccc(Cl)cc1NC(=O)C1CCCN(S(=O)(=O)c2c(C)noc2C)C1 (stereo not given),0.0669
15,COc1ccccc1N1CCN(C(=O)C(OC(C)=O)c2ccccc2)CC1 (stereo not given),-0.11
16,CNC(=O)c1ccc(OCc2ccccc2)c(OC)c1,0.749
17,CCCCCOP(=O)(c1ccccc1)c1ccccc1,-0.495
18,COc1ccc2c(CN(C)c3ccccc3)cc(=O)oc2c1,-1.1
19,c1n[nH]c(NCc2ccc3c(c2)OCO3)n1,0.0632
20,CC1(C)Cc2c(cnn2-c2ccccc2)C(=O)/C1=N\NC(=O)c1ccccc1O,-0.207
21,COC(=O)c1ccn(C(=O)c2ccc(Cl)cc2)n1,0.271
22,Cc1ccc(SCc2cc(-c3ccc(Cl)cc3)on2)cc1,0.048

row,SMILES,z-score
1,Cc1c(-c2ccccc2)cn2c1-c1ccc(C)n1CC2,-0.0402
2,O=C(NN1C(=O)/C(=C/c2cccs2)SC1=S)c1ccccc1,-0.252
3,CC1(C)CC(=O)C2=C(C1)NC1=C(C(=O)c3ccccc31)C2c1ccccc1 (stereo not given),-0.933
4,COc1ccccc1NC(=O)c1cccc(NC(=O)c2ccco2)c1,-0.669
5,COc1ccccc1N1CCN(C(=O)c2cc(-c3ccc(Br)cc3)on2)CC1,-0.425
6,CCOC(=O)CC(=O)CSc1nc2c(cc1C#N)CCCCC2,1.09
7,Cc1ccc(C(=O)N/C(=C\c2cn(-c3ccccc3)nc2-c2ccccc2)C(=O)N2CCOCC2)cc1,-0.229
8,O=S(=O)(N/N=C\c1c(F)cccc1Cl)c1ccc(Cl)cc1,-0.293
9,COC(=O)Cn1c(=NC(=O)CSCC(=O)NC2CCCCC2)sc2cc(OC)ccc21,-0.487
10,COc1cc(C2NC(=O)C(C#N)=C(S)N2c2ccc(C)cc2)ccc1OC(C)C (stereo not given),-0.0791
11,C=CCn1c2ccccc2c2nnc(SC(CC)C(=O)Nc3nc(C)c(C(=O)OCC)s3)nc21 (stereo not given),-0.486
12,CCOC(=O)C(C)(C)Sc1nc2c(cnn2-c2ccc(C)cc2)c(=O)[nH]1,-0.769
13,CCOC(=O)c1c(NC(=O)CSC(=S)N2CCOCC2)sc(C)c1C,1.03
14,C=CCc1c(C)nc(SC)nc1Nc1ccc(C(=O)O)cc1,-0.18
15,CCOc1cc(/C=N/NC(=O)CSc2nncn2C)ccc1OC(=O)c1ccc(Cl)cc1,-0.206
16,COc1ccc(N/C=C2/CCCCC2=O)cc1,0.241
17,CC(CO)Nc1nc(SCc2ccccc2)nc2sc3c(c12)CCC3 (stereo not given),0.687
18,O=C1Cc2cccc3cccc1c23,-0.0773
19,CCOc1ccc(-c2nc(C)sc2CC(=O)O)cc1,0.231
20,CN(Cc1cccc(F)c1)C(=O)c1ccc(S(=O)(=O)C(F)F)cc1,0.688
21,Cn1nnnc1SCC(=O)c1c(N)n(C)c(=O)n(C)c1=O,-0.119
22,O=C(CCSc1ccccc1)NCCN1CCOCC1,-0.737

row,SMILES,z-score
1,O=C(CC1(C(F)(F)F)OCCO1)Nc1ccc2c(c1)OCO2,0.815
2,COc1cc(/C=N/NC(=O)CCn2nnc3ccccc32)ccc1O,-0.659
3,O=C(Nc1cc(=O)[nH]c2ncnn12)c1ccc(Cl)cc1Cl,0.137
4,CCOc1cc(/C=N/NC(=O)CN2CCCCC2)ccc1OCc1ccc(Cl)cc1,-0.409
5,CCCC(=O)N(c1ccc2oc(C)c(C(C)=O)c2c1)S(=O)(=O)c1ccc(C)c([N+](=O)[O-])c1,-0.189
6,O=C1NCCN1C(=O)c1cccc(Cl)c1,-0.0542
7,CCCn1c(=O)c2ccccc2n2c(SCC(=O)N3CCc4ccccc4C3)nnc12,-2.77
8,Cc1c(NS(=O)(=O)c2ccccc2)cc(Cl)c(O)c1C,0.212
9,COCCCNC(=O)c1c(N)n(-c2cccc(S(N)(=O)=O)c2)c2nc3ccccc3nc12,-0.153
10,O=C(COC(=O)c1ccc(Br)o1)NCC1CCCO1 (stereo not given),-0.414
11,CCCCn1c(C)csc1=Nc1cccnc1,-0.113
12,CCOC(=O)c1ccccc1NC(=O)CN1C(=O)CCS(=O)(=O)c2ccccc21,-0.24
13,CC(=NCCCn1ccnc1)c1c(O)n(Cc2ccccc2)c(=O)[nH]c1=O,-0.187
14,O=C(NC1=NCCS1)NC12CC3CC(CC(C3)C1)C2,-0.286
15,CCOC(=O)CCC(=O)OCC(=O)NC(C)C1CC2CCC1C2 (stereo not given),-0.78
16,O=C(Nc1nc2ccc(Cl)cc2s1)c1ccco1,-0.371
17,CC1=CC(C)(C)N(C(=O)C(C)N2C(=O)c3ccccc3C2=O)c2c(C)cc(C)cc21 (stereo not given),0.764
18,COc1ccccc1-n1cnnc1SCC(=O)NCc1cccs1,-0.439
19,O=C(NNC(=O)c1ccc([N+](=O)[O-])cc1)c1ccncc1,-0.096
20,Cc1ccc(C(=O)COC(=O)CNC(=O)c2cccs2)cc1,-0.718
21,COc1ccc(C2CC(C(F)(F)F)n3nc(C(=O)O)c(Cl)c3N2)cc1OC (stereo not given),-0.686
22,COc1ccc(CCNC(=O)COc2ccc(-c3ccc(C#N)cc3)cc2)cc1,-0.197
